# Measurements taken from PMC4336329 (PLoS ONE, 2015).
# Among all 310,000 compounds or so, about 2,200 (0.71%) showed an effect of 50% or more. Effects have a minus sign here. The list shows a part of the results.
# Biological target: human ether-à-go-go-related gene (hERG) potassium channel (human, UniProt Q12809)
# Experiment: primary screen, population patch clamp on CHO cells stably expressing hERG
# Chain of human ether-à-go-go-related gene (hERG) potassium channel (Q12809 whole entry, looked up): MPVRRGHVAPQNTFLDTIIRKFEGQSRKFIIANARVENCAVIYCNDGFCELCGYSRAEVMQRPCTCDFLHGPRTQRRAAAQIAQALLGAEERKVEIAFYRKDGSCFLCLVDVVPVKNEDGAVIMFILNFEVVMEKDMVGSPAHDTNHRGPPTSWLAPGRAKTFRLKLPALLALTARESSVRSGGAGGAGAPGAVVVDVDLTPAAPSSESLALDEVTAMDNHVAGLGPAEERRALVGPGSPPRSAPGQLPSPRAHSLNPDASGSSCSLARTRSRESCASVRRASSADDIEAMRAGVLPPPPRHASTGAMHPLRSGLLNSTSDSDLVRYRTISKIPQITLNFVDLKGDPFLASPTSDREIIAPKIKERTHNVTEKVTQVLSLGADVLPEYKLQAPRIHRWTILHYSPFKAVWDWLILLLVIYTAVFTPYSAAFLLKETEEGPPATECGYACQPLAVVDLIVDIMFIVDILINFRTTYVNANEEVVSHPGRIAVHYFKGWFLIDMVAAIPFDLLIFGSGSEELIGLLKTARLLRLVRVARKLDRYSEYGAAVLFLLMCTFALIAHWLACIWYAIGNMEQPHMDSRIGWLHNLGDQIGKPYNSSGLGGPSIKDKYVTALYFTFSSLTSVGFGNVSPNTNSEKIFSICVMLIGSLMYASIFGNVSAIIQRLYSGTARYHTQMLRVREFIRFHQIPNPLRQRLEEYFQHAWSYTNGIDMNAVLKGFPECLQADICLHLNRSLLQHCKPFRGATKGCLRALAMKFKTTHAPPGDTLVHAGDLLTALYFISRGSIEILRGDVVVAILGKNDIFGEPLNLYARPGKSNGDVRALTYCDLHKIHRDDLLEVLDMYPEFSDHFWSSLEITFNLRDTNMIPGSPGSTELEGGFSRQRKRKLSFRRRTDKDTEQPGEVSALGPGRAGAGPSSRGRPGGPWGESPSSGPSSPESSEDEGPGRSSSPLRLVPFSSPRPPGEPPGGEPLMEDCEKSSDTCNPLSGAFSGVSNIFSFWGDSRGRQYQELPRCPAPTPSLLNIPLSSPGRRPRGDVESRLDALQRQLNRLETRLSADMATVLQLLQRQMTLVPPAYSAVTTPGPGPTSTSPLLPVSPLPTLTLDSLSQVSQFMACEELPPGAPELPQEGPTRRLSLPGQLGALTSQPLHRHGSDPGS
row,SMILES,"hERG current change (%, negative = inhibition) at 1uM [%]"
1,Cc1ccc(S(=O)(=O)Nc2ccc(O)c3ncccc23)cc1.Cl,-0.0457
2,CC(NCCCOc1cccc2ccccc12)c1ccccc1.O=C(O)C(=O)O (stereo not drawn),9.88
3,O=c1/c(=C/c2ccccn2)sc2nc3ccccc3n12,9.03
4,S=C(NCCc1ccccc1)NCCN1CCOCC1,12.3
5,Cc1cccc(NC(=O)c2oc(=O)c3ccccc3c2-c2ccccc2)c1C,-0.162
6,Cc1nc(-c2ccccc2)[nH]c(=O)c1Oc1ccc(Cl)cc1Cl,-1.5
7,O=C(CSc1nnc(CNC(=O)c2ccccc2)o1)NCc1ccco1,3.7
8,COc1cccc(OC)c1C(=O)N1CCN(Cc2ccccc2C)CC1,0.875
9,Cc1ccc(-c2ocnc2C(=O)N2CCOCC2)cc1,18.5
10,COc1ccccc1C(=O)OCC(=O)Nc1ccc(Cl)cn1,11.9
11,COc1ccc(-c2cn3c(C)c(C(=O)N4CCN(c5ccccc5F)CC4)sc3n2)cc1,-7.07
12,COC(CNC(=O)c1ccc2c(c1)ncn2-c1cccc(F)c1)OC,10.9
13,CCN(CC)c1ccc(C(=O)OCC(=O)Nc2ccc3[nH]c(=O)[nH]c3c2)cc1,8.56
14,Cc1cccc(CCNC(=O)CC2C(=O)NCCN2Cc2ccc(F)c(F)c2)n1 (stereo not drawn),11.6
15,COC(C(=O)NCc1ccc(C)cc1)c1ccccc1 (stereo not drawn),14.4
16,Cc1cc(-c2nc3ncccc3o2)ccc1NC(=S)NC(=O)c1ccco1,11
17,CCN(CC)C(=O)c1ccc(COc2ccccc2Cl)cc1,-5.76
18,O=C(Cn1cnc2c(cnn2-c2ccccc2)c1=O)NCc1ccccc1,0.424
19,Cc1nn(CC(=O)Nc2ccc3nc4n(c(=O)c3c2)CCCC4)c(C)c1[N+](=O)[O-],8.04

row,SMILES,"hERG current change (%, negative = inhibition) at 1uM [%]"
1,COc1cc(NC(=O)COC(C)=O)cc(OC)c1OC,15.2
2,Cc1cccc(NC(=O)c2cccnc2Oc2ccccc2)c1C(=O)O,20.9
3,C[C@@H]1O[C@@H](O[C@H]2C[C@@H](O)[C@]3(CO)[C@@H]4C(CC[C@]3(O)C2)[C@@]2(O)CC[C@H](C3COC(=O)C3)[C@@]2(C)C[C@H]4O)[C@H](O)[C@H](O)[C@H]1O (stereo partly drawn),18.2
4,CCOP(=O)(OCC)C(NC(=O)NC)C(N)=O (stereo not drawn),14.6
5,O=S1(=O)Nc2c(ccc3cccnc23)-c2ccccc21,3.29
6,O=C(COc1cccc(-n2cnnn2)c1)Nc1ccccc1,8.81
7,O=C(CCn1nc(-c2ccc(Cl)cc2)ccc1=O)N1CCC2(CC1)OCCO2,-3.93
8,N#Cc1c(SCC(=O)Nc2ccc(Cl)cc2Cl)sc2c(O)cc(=O)[nH]c12,6.67
9,CCOCCCNC(=O)C(NC(=O)Cc1c[nH]c2ccccc12)c1ccccc1 (stereo not drawn),6.91
10,Cc1ccc(C(c2nnnn2C2CCCCC2)N(C)C2CCCCC2)cc1 (stereo not drawn),-6.61
11,Cc1ccc(S(=O)(=O)NC2CC(C)(C)NC(C)(C)C2)cc1C,5.61
12,CCCCCCC(=O)c1c(O)n(-c2ccccc2OC)c(=O)[nH]c1=O,3.21
13,CCCCn1c(N)c(N(CC(C)C)C(=O)CSc2n[nH]c(-c3ccc(C)cc3)n2)c(=O)[nH]c1=O,5.09
14,O=C1/C(=C\c2cc(Cl)c(O)c(Cl)c2)SC(=S)N1Cc1ccccc1,14.4
15,Cc1csc(NC(=O)C2CCCN2C(=O)Oc2ccccc2)n1 (stereo not drawn),-11.7
16,CC(=O)Nc1nnc(-c2ccc(Cl)s2)o1,2.65
17,CCCCC(=O)Nc1nnnn1CCC,8.65
18,O=C(NC(=S)N1CCCCC1)c1csc([N+](=O)[O-])c1,12.8
19,O=C(COc1ccc([N+](=O)[O-])cc1)NNC(=O)Nc1ccc([N+](=O)[O-])cc1,9.68

row,SMILES,"hERG current change (%, negative = inhibition) at 1uM [%]"
1,Cc1c(Br)cc(C(=O)NC2CCCCC2)c(C)c1C,19.7
2,Cn1c(CSCc2ccccc2Cl)n[nH]c1=S,8.46
3,CCCCCCCC/C=C\CCCCCCCC(=O)O,11.4
4,Nc1sc2c(c1C(=O)NCCc1ccccc1)CCC2,6.47
5,Cc1nnc(N=c2ssnc2Cl)o1,17.9
6,Cc1nn(Cc2ccc(F)cc2)c2sc(C(=O)Nc3ccc(N4CCOCC4)cc3N3CCOCC3)cc12,8.87
7,O=C(CSc1nnc(-c2cccs2)n1-c1ccccc1)Nc1ccccc1,-15.8
8,CCc1ccc(N2CC(C(=O)Nc3nnc(CC)s3)CC2=O)cc1 (stereo not drawn),13
9,CCOCCCNC(=O)C(c1ccc(C)cc1)N(Cc1ccc2c(c1)OCO2)C(=O)CNC(C)=O (stereo not drawn),8.95
10,CN(CCc1ccccc1)C1CCCN(S(=O)(=O)CC(F)(F)F)C1 (stereo not drawn),7.27
11,CN(C)CP(=O)(O)CN(C)C=O,13.5
12,CCCCN(CC)Cc1ccc(CNC(=O)Nc2ccc(OC)cc2OC)o1,4.06
13,S=C(Nc1ccc(Br)cc1)N1CCN(C2CCCCC2)CC1,-11.3
14,Cc1nc(N/C(N)=N/S(=O)(=O)c2ccc([N+](=O)[O-])cc2)nc2ccccc12,-23.9
15,CNC(=O)c1nc(C)c(C2(C)CC(c3cccc([N+](=O)[O-])c3)=NO2)s1 (stereo not drawn),3.24
16,COc1ccc(C(=O)NNC(=O)c2cc3cc([N+](=O)[O-])ccc3oc2=O)cc1OC,11.1
17,Cc1cccc(N2CCN(C(=O)COc3cccc4c3OC(C)(C)C4)CC2)c1C,-5.47
18,COc1ccc(Cc2nnc(NC(=O)c3ccco3)s2)cc1OC,5.79
19,COc1ccc(Nc2nc(N3CCCC3)c3ccccc3n2)cc1.Cl,-15
